Results reported in PubChem BioAssay (NCATS).
Inconclusive results, whose numbers are uncertain, are shown with a selection of clear calls. Potencies beside an inconclusive call are fits to weak or partial responses and may not hold up. Calls of active or inactive are those of the source. The call rests on the fitted dose curve; in most records, active means well fitted cell-killing curve with a large enough effect; inconclusive means small, poorly fitted or top-dose-only effect; inactive means flat fitted curve, though single readings scatter.

assay: Cell Viability - NIH 3T3 (AID 541); details: NIH 3T3 cell viability, qHTS; activity change, negative = cytotoxicity: at 92.2 µM (top of the series); further: nearly all actives have a fitted effect of over 25% in size;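 on activity change, negative = cytotoxicity: plate controls were DMSO alone for no effect and tamoxifen positive control for full effect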
From the text: NIH Chemical Genomics Center [NCGC]
NIH Molecular Libraries Screening Centers Network [MLSCN]
National Institutes of Environmental Health Sciences [NIEHS]
National Toxicology Program [NTP]
We have developed a 1536-well cell-based assay for quantitative high throughput screening (qHTS) against a number of cell lines to determine in vitro cytotoxicity of small molecules. This particular assay uses the NIH 3T3 fibroblast cell line which is established from NIH Swiss mouse embryo.
NCGC Assay Protocol Summary:
The CellTiter-Glo luminescent cell viability assay (Promega) is a homogeneous method to measure the number of viable cells in culture. The end point readout of this assay is based on quantitation of intracellular ATP, an indicator of metabolic activity, using the luciferase reaction. Luciferase catalyzes the oxidation of beetle Luciferin to oxyluciferin and light in the presence of ATP. The luminescent signal is proportional to amount of ATP present.
Using the CellTiter-Glo luminescent cell viability assay, the amount of cellular ATP was measured in the NIH 3T3 cell line with complete culture medium following compound treatment for 40 hours. The assay was performed in opaque white Kalypsys 1536-well plates. In the screen, tamoxifen and doxorubicin were used as positive controls. Library compounds were measured for their ability to cause acute toxicity in the cell line, as reflected by a decrease in intracellular ATP levels, in a concentration-dependent manner. […] AC50 values were determined from concentration-response data modeled with the standard Hill equation.
qHTS protocol for CellTiter Glo NIH 3T3 cellular assay
[Step] [Parameter] [Value] [Description]
1. Reagent; 5 uL; 1000 NIH 3T3 cells/well
2. Time; 5 hr; 37 °C incubation
4. Controls; 23 nL; Tamoxifen 0.34 uM to 100 uM & Doxorubicin 0.02 nM to 100 uM
5. Time; 40 hr; 37 °C incubation
6. Reagent; 5 uL; CellTiter Glo reagent
7. Time; 20 min; Room Temperature
8. Detection; Luminescence; Viewlux plate reader
Keywords: cell viability, cytotoxicity, NIH 3T3 cell line, luminescence, NTPHTS, NTPHTS_NCGC, NIEHS, EPA, DSSTox, MLSMR, MLSCN, NIH Roadmap, qHTS, NCGC
Potency means the concentration at half of the fitted maximal effect; tags describe the fitted curve by direction and shape.

SMILES | activity change, negative = cytotoxicity | Potency
COc1ccc(N)cc1 | inconclusive: -8.75% | –
OCCOCCO | inactive: 5.42% | –
N#CCBr | – | active: 10 µM
c1ccc(OCC2CO2)cc1 (stereo not given) | inconclusive: -128% | –
O=Cc1ccc2c(c1)OCO2 | inconclusive: -43.5% | –
N#CC(O)c1ccccc1 (stereo not given) | inactive: 5.71% | –
S=C1NCCN1 | inactive: -17.3% | –
O=NN1CCCCC1 | inactive: -1.48% | –
CNC(=O)O/N=C/C(C)(C)S(C)=O (stereo not given) | inconclusive: -46.2% | –
Nc1ccc(-c2ccc(N)cc2)cc1 | inactive: -19% | –
C=CCCC#N | – | inconclusive: 0.0794 µM [falling, full curve, poor fit]
CN(C)N=O | inactive: -5.89% | –
CCCCOCCOP(=O)(OCCOCCCC)OCCOCCCC | inactive: -4.02% | –
Cl/C=C\Cl | inactive: 0.835% | –
COc1cc(-c2ccc(N)c(OC)c2)ccc1N | inconclusive: -45.1% | –
Oc1cc(Cl)cc(Cl)c1 | inactive: -15.6% | –
Oc1ccc(Cl)c(Cl)c1 | – | inconclusive: 31.6 µM [falling, full curve, poor fit]
CCCOC(=O)c1ccccc1C(=O)OCCC | – | inconclusive: 0.2 µM [falling, full curve, poor fit]
CC(C)(OO)c1ccccc1 | active: -123% | –
CC(C)Br | inactive: -4.09% | –

SMILES | activity change, negative = cytotoxicity | Potency
ClCCOCOCCCl | inactive: -0.878% | –
Cc1ccc([N+](=O)[O-])cc1 | inactive: -9.07% | –
c1ccc2c(c1)CCNC2 | inactive: -13% | –
CC(C)CON=O | inactive: 9.14% | –
Oc1ccc(Cl)c(Cl)c1Cl | inactive: -20.1% | –
C=CC#N | inconclusive: -44.5% | –
COC(=O)c1ccccc1N | – | inconclusive: 12.6 µM [falling, full curve, poor fit]
BrCC(Br)C1CCC(Br)C(Br)C1 (stereo not given) | inconclusive: -68.2% | –
CN(C)c1ccccc1 | inactive: -0.602% | –
O=[N+]([O-])c1cc(Cl)c(Cl)cc1Cl | inconclusive: -119% | –
Cc1ccc(N)c(N)c1 | – | active: 5.01 µM
CN(C)c1ccc(N=Nc2ccccc2)cc1 | inconclusive: -45% | –
[O-][Cl+]O | inactive: 2% | –
CC(Cl)CCl (stereo not given) | inactive: 17.2% | –
C/C=C/C=O | inactive: 1.78% | –
Nc1ccc([N+](=O)[O-])cc1[N+](=O)[O-] | – | active: 10 µM
Cc1cc(C)cc(OP(=O)(Oc2cc(C)cc(C)c2)Oc2cc(C)cc(C)c2)c1 | inconclusive: -35.1% | –
N#CCCCl | – | inactive
CCCCC(=O)Cl | inactive: -3.05% | –
Nc1ccc(Cl)c(Cl)c1 | inactive: -13.4% | –
